Some of the results follow.
target: T1, MBP-FoxP1dN (Mus musculus, UniProt P58462 326-579); assay: PD-seq (MBP pull-down with sequencing); 20 mM Tris-HCl pH 7.5, 100 mM NaCl, 1.5 mM MgCl2, 0.4 uM protein, 0.1 uM dsDNA library, 30 min, room temperature, amylose pull-down; high values mean tight binding; details: protein: recombinant; tags: His6-MBP; chain copies: 2; dsDNA, one strand shown
T1 sequence: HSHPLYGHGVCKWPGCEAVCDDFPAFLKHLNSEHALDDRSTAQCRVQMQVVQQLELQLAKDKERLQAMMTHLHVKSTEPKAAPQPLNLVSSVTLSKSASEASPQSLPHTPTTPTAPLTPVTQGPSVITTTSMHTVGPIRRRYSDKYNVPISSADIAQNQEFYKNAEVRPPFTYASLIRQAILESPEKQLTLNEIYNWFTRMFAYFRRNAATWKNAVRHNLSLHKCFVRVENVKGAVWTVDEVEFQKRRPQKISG
Procedure, shortened: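 A fragment of mouse FoxP3 or FoxP1 without its N-terminus, carrying a His6-MBP tag and produced in E. coli, was combined at 0.4 µM with a 0.1 µM degenerate double-stranded DNA library filled in with Klenow. The mixture sat for 30 min at room temperature in Tris pH 7.5 buffer containing NaCl and MgCl2. Protein–DNA complexes were captured on amylose resin, washed three times, and the DNA was freed with proteinase K, barcoded by PCR and sequenced on Illumina. Binding is expressed as reads-per-million enrichment of pull-down over input, with replicates pooled.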

| Sequence | binding signal |
| --- | --- |
| GATGATTGTTCTCCCAGCTGATGAATTACTTCGATCGAGTAAACAAATTTTCCTAATCTTTCTGTTCAAGCGCCATCTAC | 1.01 RPM ratio (pull-down/input) |
| GATGATTGTTCTCCCAGCTGATGAATTTACTTCGTCGAGTAAACAAATTTTCCTAATCTTTCTGTTCAAGCGCCATCTAC | 1.18 RPM ratio (pull-down/input) |
| GATGATTGTTCTCCCAGCTGATGAATTTACATGGTCGAGTAAACAAATTTTCCTAATCTTTCTGTTCAAGCGCCATCTAC | 1.15 RPM ratio (pull-down/input) |
| GATGATTGTTCTCCCAGCTGATGAATTGTCTCAGTCGAGTAAACAAATTTTCCTAATCTTTCTGTTCAAGCGCCATCTAC | 1.02 RPM ratio (pull-down/input) |
| GATGATTGTTCTCCCAGCTGATGAATTACGAGCGTCGAGTAAACAAATTTTCCTAATCTTTCTGTTCAAGCGCCATCTAC | 1.02 RPM ratio (pull-down/input) |
| GATGATTGTTCTCCCAGCTGATGAATTCACTCGTTCGAGTAAACAAATTTTCCTAATCTTTCTGTTCAAGCGCCATCTAC | 0.934 RPM ratio (pull-down/input) |
| GATGATTGTTCTCCCAGCTGATGAATTGTTATAATCGAGTAAACAAATTTTCCTAATCTTTCTGTTCAAGCGCCATCTAC | 1.59 RPM ratio (pull-down/input) |
| GATGATTGTTCTCCCAGCTGATGAATTTCCCCGTTCGAGTAAACAAATTTTCCTAATCTTTCTGTTCAAGCGCCATCTAC | 0.895 RPM ratio (pull-down/input) |
| GATGATTGTTCTCCCAGCTGATGAATTCCGTGCCTCGAGTAAACAAATTTTCCTAATCTTTCTGTTCAAGCGCCATCTAC | 0.86 RPM ratio (pull-down/input) |
| GATGATTGTTCTCCCAGCTGATGAATTCCGTTGGTCGAGTAAACAAATTTTCCTAATCTTTCTGTTCAAGCGCCATCTAC | 0.871 RPM ratio (pull-down/input) |
| GATGATTGTTCTCCCAGCTGATGAATTGATCTTATCGAGTAAACAAATTTTCCTAATCTTTCTGTTCAAGCGCCATCTAC | 1.08 RPM ratio (pull-down/input) |
| GATGATTGTTCTCCCAGCTGATGAATTGAAAGACTCGAGTAAACAAATTTTCCTAATCTTTCTGTTCAAGCGCCATCTAC | 0.811 RPM ratio (pull-down/input) |
| GATGATTGTTCTCCCAGCTGATGAATTCACCCATTCGAGTAAACAAATTTTCCTAATCTTTCTGTTCAAGCGCCATCTAC | 1.02 RPM ratio (pull-down/input) |
| GATGATTGTTCTCCCAGCTGATGAATTCAAGCCATCGAGTAAACAAATTTTCCTAATCTTTCTGTTCAAGCGCCATCTAC | 0.974 RPM ratio (pull-down/input) |
| GATGATTGTTCTCCCAGCTGATGAATTCAGCCGCTCGAGTAAACAAATTTTCCTAATCTTTCTGTTCAAGCGCCATCTAC | 0.795 RPM ratio (pull-down/input) |
| GATGATTGTTCTCCCAGCTGATGAATTCATGAGTTCGAGTAAACAAATTTTCCTAATCTTTCTGTTCAAGCGCCATCTAC | 0.888 RPM ratio (pull-down/input) |
| GATGATTGTTCTCCCAGCTGATGAATTCTGACTATCGAGTAAACAAATTTTCCTAATCTTTCTGTTCAAGCGCCATCTAC | 0.945 RPM ratio (pull-down/input) |
| GATGATTGTTCTCCCAGCTGATGAATTATCACCATCGAGTAAACAAATTTTCCTAATCTTTCTGTTCAAGCGCCATCTAC | 1.08 RPM ratio (pull-down/input) |
| GATGATTGTTCTCCCAGCTGATGAATTCGGCAAATCGAGTAAACAAATTTTCCTAATCTTTCTGTTCAAGCGCCATCTAC | 0.926 RPM ratio (pull-down/input) |
| GATGATTGTTCTCCCAGCTGATGAATTGGTACCGTCGAGTAAACAAATTTTCCTAATCTTTCTGTTCAAGCGCCATCTAC | 0.956 RPM ratio (pull-down/input) |
| GATGATTGTTCTCCCAGCTGATGAATTGTCTAAGTCGAGTAAACAAATTTTCCTAATCTTTCTGTTCAAGCGCCATCTAC | 1.09 RPM ratio (pull-down/input) |

| Sequence | binding signal |
| --- | --- |
| GATGATTGTTCTCCCAGCTGATGAATTTTAAGTGTCGAGTAAACAAATTTTCCTAATCTTTCTGTTCAAGCGCCATCTAC | 1.01 RPM ratio (pull-down/input) |
| GATGATTGTTCTCCCAGCTGATGAATTTCCGTGCTCGAGTAAACAAATTTTCCTAATCTTTCTGTTCAAGCGCCATCTAC | 0.787 RPM ratio (pull-down/input) |
| GATGATTGTTCTCCCAGCTGATGAATTCACCTTTTCGAGTAAACAAATTTTCCTAATCTTTCTGTTCAAGCGCCATCTAC | 0.881 RPM ratio (pull-down/input) |
| GATGATTGTTCTCCCAGCTGATGAATTTTAGGGGTCGAGTAAACAAATTTTCCTAATCTTTCTGTTCAAGCGCCATCTAC | 0.805 RPM ratio (pull-down/input) |
| GATGATTGTTCTCCCAGCTGATGAATTAGCCTACTCGAGTAAACAAATTTTCCTAATCTTTCTGTTCAAGCGCCATCTAC | 0.878 RPM ratio (pull-down/input) |
| GATGATTGTTCTCCCAGCTGATGAATTCGACCGGTCGAGTAAACAAATTTTCCTAATCTTTCTGTTCAAGCGCCATCTAC | 0.774 RPM ratio (pull-down/input) |
| GATGATTGTTCTCCCAGCTGATGAATTTAGTGGATCGAGTAAACAAATTTTCCTAATCTTTCTGTTCAAGCGCCATCTAC | 0.904 RPM ratio (pull-down/input) |
| GATGATTGTTCTCCCAGCTGATGAATTTTAGAATTCGAGTAAACAAATTTTCCTAATCTTTCTGTTCAAGCGCCATCTAC | 0.918 RPM ratio (pull-down/input) |
| GATGATTGTTCTCCCAGCTGATGAATTCTCACCATCGAGTAAACAAATTTTCCTAATCTTTCTGTTCAAGCGCCATCTAC | 0.916 RPM ratio (pull-down/input) |
| GATGATTGTTCTCCCAGCTGATGAATTACCTAAATCGAGTAAACAAATTTTCCTAATCTTTCTGTTCAAGCGCCATCTAC | 1.15 RPM ratio (pull-down/input) |
| GATGATTGTTCTCCCAGCTGATGAATTGGCCCGATCGAGTAAACAAATTTTCCTAATCTTTCTGTTCAAGCGCCATCTAC | 0.782 RPM ratio (pull-down/input) |
| GATGATTGTTCTCCCAGCTGATGAATTAGAGATCTCGAGTAAACAAATTTTCCTAATCTTTCTGTTCAAGCGCCATCTAC | 0.832 RPM ratio (pull-down/input) |
| GATGATTGTTCTCCCAGCTGATGAATTCACAATTTCGAGTAAACAAATTTTCCTAATCTTTCTGTTCAAGCGCCATCTAC | 1.08 RPM ratio (pull-down/input) |
| GATGATTGTTCTCCCAGCTGATGAATTAAATTGCTCGAGTAAACAAATTTTCCTAATCTTTCTGTTCAAGCGCCATCTAC | 1.05 RPM ratio (pull-down/input) |
| GATGATTGTTCTCCCAGCTGATGAATTCATAAAGTCGAGTAAACAAATTTTCCTAATCTTTCTGTTCAAGCGCCATCTAC | 0.905 RPM ratio (pull-down/input) |
| GATGATTGTTCTCCCAGCTGATGAATTCGGTAACTCGAGTAAACAAATTTTCCTAATCTTTCTGTTCAAGCGCCATCTAC | 0.833 RPM ratio (pull-down/input) |
| GATGATTGTTCTCCCAGCTGATGAATTTCATTAGTCGAGTAAACAAATTTTCCTAATCTTTCTGTTCAAGCGCCATCTAC | 0.848 RPM ratio (pull-down/input) |
| GATGATTGTTCTCCCAGCTGATGAATTTACCGTTTCGAGTAAACAAATTTTCCTAATCTTTCTGTTCAAGCGCCATCTAC | 1.17 RPM ratio (pull-down/input) |
| GATGATTGTTCTCCCAGCTGATGAATTGTATGCATCGAGTAAACAAATTTTCCTAATCTTTCTGTTCAAGCGCCATCTAC | 1.47 RPM ratio (pull-down/input) |
| GATGATTGTTCTCCCAGCTGATGAATTGGATTATTCGAGTAAACAAATTTTCCTAATCTTTCTGTTCAAGCGCCATCTAC | 0.928 RPM ratio (pull-down/input) |
| GATGATTGTTCTCCCAGCTGATGAATTTACATGATCGAGTAAACAAATTTTCCTAATCTTTCTGTTCAAGCGCCATCTAC | 1.42 RPM ratio (pull-down/input) |

| Sequence | binding signal |
| --- | --- |
| GATGATTGTTCTCCCAGCTGATGAATTCCTCAGGTCGAGTAAACAAATTTTCCTAATCTTTCTGTTCAAGCGCCATCTAC | 0.743 RPM ratio (pull-down/input) |
| GATGATTGTTCTCCCAGCTGATGAATTCATTTTCTCGAGTAAACAAATTTTCCTAATCTTTCTGTTCAAGCGCCATCTAC | 0.867 RPM ratio (pull-down/input) |
| GATGATTGTTCTCCCAGCTGATGAATTGAATTACTCGAGTAAACAAATTTTCCTAATCTTTCTGTTCAAGCGCCATCTAC | 0.826 RPM ratio (pull-down/input) |
| GATGATTGTTCTCCCAGCTGATGAATTTGATGTCTCGAGTAAACAAATTTTCCTAATCTTTCTGTTCAAGCGCCATCTAC | 1.07 RPM ratio (pull-down/input) |
| GATGATTGTTCTCCCAGCTGATGAATTAAGAAGCTCGAGTAAACAAATTTTCCTAATCTTTCTGTTCAAGCGCCATCTAC | 0.87 RPM ratio (pull-down/input) |
| GATGATTGTTCTCCCAGCTGATGAATTGAAAGAGTCGAGTAAACAAATTTTCCTAATCTTTCTGTTCAAGCGCCATCTAC | 0.824 RPM ratio (pull-down/input) |
| GATGATTGTTCTCCCAGCTGATGAATTATTAGCTTCGAGTAAACAAATTTTCCTAATCTTTCTGTTCAAGCGCCATCTAC | 1.11 RPM ratio (pull-down/input) |
| GATGATTGTTCTCCCAGCTGATGAATTCAAGCTATCGAGTAAACAAATTTTCCTAATCTTTCTGTTCAAGCGCCATCTAC | 0.968 RPM ratio (pull-down/input) |
| GATGATTGTTCTCCCAGCTGATGAATTAGTCGTATCGAGTAAACAAATTTTCCTAATCTTTCTGTTCAAGCGCCATCTAC | 1.01 RPM ratio (pull-down/input) |
| GATGATTGTTCTCCCAGCTGATGAATTCAGACTCTCGAGTAAACAAATTTTCCTAATCTTTCTGTTCAAGCGCCATCTAC | 0.763 RPM ratio (pull-down/input) |
| GATGATTGTTCTCCCAGCTGATGAATTGTCAGGTTCGAGTAAACAAATTTTCCTAATCTTTCTGTTCAAGCGCCATCTAC | 0.882 RPM ratio (pull-down/input) |
| GATGATTGTTCTCCCAGCTGATGAATTTCGTCACTCGAGTAAACAAATTTTCCTAATCTTTCTGTTCAAGCGCCATCTAC | 0.938 RPM ratio (pull-down/input) |
| GATGATTGTTCTCCCAGCTGATGAATTCGCCATTTCGAGTAAACAAATTTTCCTAATCTTTCTGTTCAAGCGCCATCTAC | 0.911 RPM ratio (pull-down/input) |
| GATGATTGTTCTCCCAGCTGATGAATTTTCTTCATCGAGTAAACAAATTTTCCTAATCTTTCTGTTCAAGCGCCATCTAC | 1 RPM ratio (pull-down/input) |
| GATGATTGTTCTCCCAGCTGATGAATTACCGAGATCGAGTAAACAAATTTTCCTAATCTTTCTGTTCAAGCGCCATCTAC | 0.942 RPM ratio (pull-down/input) |
| GATGATTGTTCTCCCAGCTGATGAATTGAAGAGGTCGAGTAAACAAATTTTCCTAATCTTTCTGTTCAAGCGCCATCTAC | 0.797 RPM ratio (pull-down/input) |
| GATGATTGTTCTCCCAGCTGATGAATTCGCCAAATCGAGTAAACAAATTTTCCTAATCTTTCTGTTCAAGCGCCATCTAC | 0.936 RPM ratio (pull-down/input) |
| GATGATTGTTCTCCCAGCTGATGAATTTTTAGGCTCGAGTAAACAAATTTTCCTAATCTTTCTGTTCAAGCGCCATCTAC | 0.893 RPM ratio (pull-down/input) |
| GATGATTGTTCTCCCAGCTGATGAATTATTTCGCTCGAGTAAACAAATTTTCCTAATCTTTCTGTTCAAGCGCCATCTAC | 1.04 RPM ratio (pull-down/input) |
| GATGATTGTTCTCCCAGCTGATGAATTTTACCATTCGAGTAAACAAATTTTCCTAATCTTTCTGTTCAAGCGCCATCTAC | 0.993 RPM ratio (pull-down/input) |
| GATGATTGTTCTCCCAGCTGATGAATTGCAGCACTCGAGTAAACAAATTTTCCTAATCTTTCTGTTCAAGCGCCATCTAC | 1.11 RPM ratio (pull-down/input) |
